# Among all 130,000 compounds or so, about 1,900 (1.5%) were called active. The inconclusive results got no clear call from the source; some entries with a clear call stand among them for comparison. Calls follow the shape of the dose curve; as a rule, active = well fitted cell-killing curve with a large enough effect; inconclusive = small, poorly fitted or top-dose-only effect; inactive = no such curve, though single readings can be large or run the other way. A potency beside an inconclusive call is a rough fit, not a confirmed value. Some compounds were tested as several samples or in several runs, with calls that do not always agree.
# Test: qHTS Screen for Compounds that Selectively Target Cancer Cells with p53 Mutations: Cytotoxicity of p53ts Cells at the Nonpermissive Temperature; also: nearly all actives have a fitted effect of over 55% in size
# Settings: H1299-p53A138V viability at 39C, ATP luminescence, 24 h; activity change, negative = cell killing: at 46.1 µM (top of the series)
# % is scaled to controls: 0 for no effect and ±100 for the full control effect; potency is read from the fitted curve at half-maximal effect; tags tell the direction and shape of the fitted curve.
SMILES,Potency,"activity change, negative = cell killing"
COc1ccc(C(=O)CC2(O)C(=O)N(Cc3ccccc3)c3ccc(Br)cc32)cc1 (centres undefined),active: 12.6 µM,
CCOc1ccc(NC(=O)NCCN2CCN(c3cc(Cl)ccc3C)CC2)cc1,"inconclusive: 31.6 µM [cytotoxic, single point]",
COc1ccc(Cn2c(SCc3ccc(C(=O)NCc4ccc(C)cc4)cc3)nc3cccnc32)cc1,"inconclusive: 10 µM [cytotoxic, partial curve]",
O=C(Nc1ccc(OC(F)F)c(Cl)c1)C(c1ccccc1)c1ccccc1,"inconclusive: 15.8 µM [cytotoxic, single point]",
Nc1[nH]nc2nc3ccccc3nc12,"inconclusive: 31.6 µM [cytotoxic, single point]",
O=C(OCn1nnc2ccccc2c1=O)c1cc(-c2ccccc2Cl)nc2ccccc12,,inactive: -5.41%
COc1ccc(CNC(=O)c2cc(-c3ccc(Br)s3)nc3ccccc23)c(OC)c1,"inconclusive: 25.1 µM [cytotoxic, single point]",
CC1=C(C(=O)OCc2ccc(C)cc2)C(c2ccccc2C(F)(F)F)CC(=O)N1 (centres undefined),"inconclusive: 15.8 µM [cytotoxic, single point]",
Cc1ccc(O)c(NC(=O)CCS(=O)(=O)c2nc(-c3cccs3)cc(C(F)(F)F)n2)c1,"inconclusive: 25.1 µM [cytotoxic, single point]",
CCc1ccccc1NC(=O)c1cc(-c2ccc(Cl)s2)nc2ccccc12,active: 10 µM,
Cc1ccc(C(=O)c2cnc3cc4c(cc3c2S(=O)(=O)c2ccccc2)OCCO4)cc1,"inconclusive: 20 µM [cytotoxic, single point]",
CC(=O)c1cccc(NC(=O)Nc2ccc3c(c2)N(C)C(=O)CS3)c1,active: 20 µM,
CCOc1ccc(CNCc2c(C(=O)O)n(Cc3ccc(C)cc3)c3cc(C)ccc23)cc1,"inconclusive: 25.1 µM [cytotoxic, single point]",
CC(=O)Nc1ccc(-c2cn3ccsc3n2)cc1,"inconclusive: 10 µM [cytotoxic, partial curve]",
O=c1[nH]c(=O)n([C@@H]2O[C@H](CO)[C@@H](O)[C@H]2O)cc1F,"inconclusive: 25.1 µM [cytotoxic, partial curve]",
CCOc1ccc(C2Nc3c(C)cccc3-c3cc(C)nn32)cc1 (centres undefined),,inactive: -8.65%
Cc1cccc(C(OC(=O)c2ccco2)C(=O)NCc2ccccc2)n1 (centres undefined),,inactive: -0.724%
Cc1ccccc1Cn1c2ccccc2c2cnn(CC(=O)NCCc3ccccc3)c(=O)c21,"inconclusive: 12.6 µM [cytotoxic, single point]",
NC(=NCc1ccc(Cl)c(Cl)c1)NC(=O)c1nc(Cl)c(N)nc1N,active: 12.6 µM,
O=C(c1cc2c(s1)-c1ccccc1OC2)N1CCN(c2ccccc2)CC1,,inactive: -14.5%
COC(=O)Cc1c(C)nc2nc(Cc3ccccc3)[nH]n2c1=O,,inactive: 12.8%
Cc1cc(C)cc(NC(=O)C2CCCN(C(=O)c3cnn(-c4ccccc4)c3-n3cccc3)C2)c1 (centres undefined),"inconclusive: 1.26 µM [cytotoxic, full curve, poor fit]",
CC(=O)Nc1nonc1-c1nnc(SCC(=O)Nc2cc(C)cc(C)c2)n1-c1ccccc1,"inconclusive: 31.6 µM [cytotoxic, single point]",

SMILES,Potency,"activity change, negative = cell killing"
Cc1ccc(S(=O)(=O)c2c(Nc3cc(F)ccc3F)sc(C(=O)c3ccc(F)cc3)c2N)cc1,,inactive: -7%
O=C(COc1ccccc1C(=O)c1cnn(-c2ccccc2)c1)Nc1ccccc1,"inconclusive: 11.2 µM [cytotoxic, partial curve]",
Fc1ccccc1Cn1c(-c2ccccc2)nc2ccccc21,"inconclusive: 31.6 µM [cytotoxic, single point]",
CCn1cc(SCC(=O)NCc2ccc3c(c2)OCO3)c2ccccc21,active: 5.01 µM,
Cc1cccc2nc(-c3cccc(NS(=O)(=O)c4ccccc4)c3)cn12,,inactive: -9.52%
Cc1ccc(C)c(CSc2nc3ccncc3n2CC(=O)Nc2ccc(N(C)C)cc2)c1,"inconclusive: 31.6 µM [cytotoxic, partial curve, poor fit]",
CCCOC(=O)c1ccc(Oc2cn[nH]c2-c2ccc(OCC)cc2O)cc1,"inconclusive: 31.6 µM [cytotoxic, single point]",
Cc1ccc(Cl)cc1N1CCN(CCNC(=O)Nc2ccccc2Cl)CC1,"inconclusive: 12.6 µM [cytotoxic, single point]",
O=C(CSc1ccccc1)Nc1ccc(-c2nc3ccccc3[nH]2)cc1,,inactive: -18.4%
CCOc1ccc(NC(=O)CSc2nc3c(oc4ccccc43)c(=O)n2CCOC)cc1,"inconclusive: 6.31 µM [cytotoxic, full curve, poor fit]",
CCCCN(CC)CCCNC(=O)c1cc2c(=O)[nH]c3ccccc3c2s1,"inconclusive: 31.6 µM [cytotoxic, single point]",
COCCn1c(=O)c(-c2cc(F)cc(F)c2)nc2cnc(Nc3cccc(OC)c3)nc21,,inactive: -3.92%
Cc1ccc2nc(N(Cc3cccnc3)C(=O)CCS(=O)(=O)c3ccccc3)sc2c1,"inconclusive: 25.1 µM [cytotoxic, single point]",
Cc1cc(C(C)(C)CC(C)(C)C)ccc1OCCOCC[N+](C)(C)Cc1ccccc1,active: 25.1 µM,
Cc1nc(NCCN2CCOCC2)c2oc3ccccc3c2n1,"inconclusive: 15.8 µM [cytotoxic, single point]",
CCCCc1ccc(Nc2nc(CCC)cc(=O)[nH]2)cc1,"inconclusive: 25.1 µM [cytotoxic, single point]",
Cc1ccc(-c2cc(C(F)(F)F)c(C#N)c(SCC(=O)Nc3ccccc3)n2)cc1,"inconclusive: 31.6 µM [cytotoxic, single point]",
Fc1cccc(CSc2nc3ccncc3[nH]2)c1,active: 10 µM,
CCOc1cccc(C2c3c(-c4cc(C)ccc4O)n[nH]c3C(=O)N2Cc2ccco2)c1 (centres undefined),"inconclusive: 31.6 µM [cytotoxic, single point]",
Cc1cccc2c1-c1sc(C(=O)N(C)c3cccc(C(F)(F)F)c3)cc1CO2,"inconclusive: 10 µM [cytotoxic, partial curve, poor fit]",
CN(C)CCCN1c2ccccc2CCc2ccc(Cl)cc21,active: 20 µM,
O=c1oc2ccccc2cc1-c1cn2cccnc2n1,"inconclusive: 15.8 µM [cytotoxic, partial curve]",
Cc1nc2sc(C(c3cccs3)N3CC(C)CC(C)C3)c(O)n2n1 (centres undefined),"inconclusive: 7.94 µM [cytotoxic, partial curve]",

SMILES,Potency,"activity change, negative = cell killing"
COc1cc2c(-c3ccccc3O)nc3c(c(C)nn3-c3ccccc3)c2cc1OC,"inconclusive: 3.16 µM [cytotoxic, full curve]",
CCC1CCCCN1CCCNC(=O)c1c(O)nc2ccccn2c1=O (centres undefined),"inconclusive: 0.158 µM [cytotoxic, full curve, poor fit]",
Nc1ccc2nc(-c3cc(Cl)c(N)c(Cl)c3)[nH]c2c1,"inconclusive: 10 µM [cytotoxic, partial curve]",
CCCCCCCC/C=C\CCCCCCCC(=O)NCc1ccc(O)c(OC)c1,active: 31.6 µM,
CCOC(=O)c1ccc(Nc2nc3nonc3nc2Nc2cccc(C)c2C)cc1,"inconclusive: 12.6 µM [cytotoxic, partial curve]",
CN(C)c1nc(-c2ccc3c(c2)OCO3)nc2ccccc12,,inactive: -15.1%
COc1ccc(NC(=O)CSc2nc3ccccc3nc2Cc2ccc(C)cc2)cc1Cl,"inconclusive: 12.6 µM [cytotoxic, partial curve]",
CCOc1ccc2nc(N3CCC(C(=O)Nc4c(C)cccc4C)CC3)sc2c1,"inconclusive: 25.1 µM [cytotoxic, single point]",
Cc1ccc(C)c(N2CCN(C(=O)c3cc4c(=O)n(Cc5cccs5)ccc4nc3C)CC2)c1,,inactive: -6.21%
Cc1coc2cc3oc(=O)c(CC(=O)NCc4ccccc4)c(C)c3cc12,"inconclusive: 31.6 µM [cytotoxic, single point]",
COc1cccc(-c2cnc(NCc3ccccc3Cl)n2C)c1,"inconclusive: 12.6 µM [cytotoxic, single point]",
CCCc1nn2c(C)c(-c3ccccc3)nc2s1,active: 10 µM,
O=S(=O)(Nc1cccc(-c2ccc(N3CCOCC3)nn2)c1)c1ccc(F)cc1F,"inconclusive: 20 µM [cytotoxic, partial curve]",
O=c1c2c3c(sc2n(Cc2cc(=O)n4ccccc4n2)c(=O)n1-c1ccc(Cl)cc1)CCC3,,inactive: 26.3%
Cc1ccc(-n2ncc(C(=O)N3CCC(c4ccccc4)C3)c2C2CCN(C(=O)OC(C)(C)C)CC2)cc1 (centres undefined),"inconclusive: 15.8 µM [cytotoxic, single point]",
CCOc1ccccc1N1CC(c2nc3ccccc3n2CCOc2ccc(C(C)(C)C)cc2)CC1=O (centres undefined),active: 12.6 µM,
O=C(c1ccco1)N1CCC2(CCCN(C(c3ccccc3)c3ccccc3)C2)CC1,"inconclusive: 31.6 µM [cytotoxic, single point]",
CCN(c1ccc(C)cc1)S(=O)(=O)c1nnc(NC(=O)c2cccs2)s1,,inactive: -5.7%
COc1ccccc1CNC(=O)Cn1ncc2c(C)n(Cc3ccccc3Cl)c(C)c2c1=O,"inconclusive: 31.6 µM [cytotoxic, single point]",
COC(=O)c1ccc(OCC(=O)c2ccc(O)cc2O)cc1,active: 12.6 µM,
COc1ccc2c(c1)CCc1sc(NC(=O)c3ccc(Br)cc3)nc1-2,,inactive: -27.3%
Cc1cc(C)nc(SCC(=O)N2CCCCC2)n1,,inactive: -4.82%
Oc1ccc(-c2nnc(SCC3CCCCC3)o2)cc1,"inconclusive: 12.6 µM [cytotoxic, partial curve]",

# Source: PubChem BioAssay AID902 (National Center for Advancing Translational Sciences (NCATS), 2007)
